# Source: paper PMC10668032
# The other results are listed elsewhere or left out. At the low end of the ranking the order means little.
# Target: SIX1 homeodomain (reference allele) (UniProt Q15475)
# Assay: universal protein binding microarray
# Settings: Universal all-10-mer PBM (8x60K, AMADID 030236), 300 nM GST-tagged protein, Alexa Fluor 488 anti-GST; buffer, salt, pH and temperature not stated; high values mean tight binding; most listed sequences are background and not binding sites; double strand, one strand shown
row,Sequence,binding signal [E-score]
1,GGCAGTGA,-0.0157
2,CCCTCTCG,0.0429
3,GGCTAACA,0.00317
4,ATCACCCC,0.302
5,ACGTACGG,0.00246
6,GATTCAGC,-0.178
7,CCACAGAG,-0.0746
8,ATGTGTAA,0.0676
9,TAGGTTCA,0.0674
10,ACAACTGC,-0.252
11,GGTCTGTA,0.0389
12,GTAGGTCA,-0.264
13,GCTACGCC,-0.031
14,CCGTAGAC,-0.033
15,ATGCAAGA,0.0291
16,CAATTTCG,-0.259
17,ACCATGCT,0.0723
18,CCGAGCGC,-0.0976
19,CTGGTAAG,-0.0233
20,AGCATTCA,-0.118
21,AACCTCGA,-0.154
22,CCGTTTAC,-0.0558

row,Sequence,binding signal [E-score]
1,CGAGGTAA,-0.216
2,AATCCTGT,-0.0105
3,AACGCCCT,-0.308
4,TGCTCACA,-0.133
5,GCCTCCTA,-0.135
6,ACAGAAAA,-0.242
7,GGGAGCAA,-0.161
8,CCAGCGAA,-0.12
9,CCCAATAG,-0.0401
10,GGATAAGA,0.137
11,AGTGCAGG,-0.0994
12,AAGTCGTA,-0.15
13,CACCTGCA,-0.00053
14,CCAGTCAG,-0.171
15,CATAAGGC,-0.13
16,ACGCCCAC,-0.143
17,ATGTGACA,-0.0198
18,AACTAACT,-0.153
19,TAAAAGAA,-0.183
20,ACTGCCTC,-0.113
21,ACTTTGAG,-0.0364
22,CGAATCAA,0.005

row,Sequence,binding signal [E-score]
1,CCAAGCCC,-0.0645
2,GGTGACTA,-0.0832
3,GAACCAAC,0.0188
4,GAGTGACA,0.0422
5,CGAGGCTA,-0.0173
6,AGGCCTAC,-0.172
7,GAACTCTA,-0.118
8,AAGTACCA,-0.0495
9,AATCAGTA,-0.0148
10,CGAAGAGA,0.0554
11,AGTCCCAT,-0.259
12,AACATGGG,0.0557
13,ACTTGGCC,-0.147
14,GTTTAATA,0.0759
15,AGCGTGGA,-0.198
16,AAGCATAC,0.00651
17,ACCACCCA,0.0159
18,ACGTAGAG,-0.0563
19,AGTAGTTC,-0.136
20,TCCGTGAA,-0.0494
21,ACTCATGG,0.0152
22,ACGCGGGG,0.0464
